Drawing on the supplement of paper PMC10126150, this text covers switch fluorescence ratio for 67 sequences.

Sequences with one replicate were seen in a single cluster, so their values are uncertain.

In this series the test system is ATP. Put plainly: switch fluorescence ratio, 500 uM ATP over buffer (Cy3 cluster intensity, sum of 5 cycles each) (fold (ratio)); higher = stronger signal-on switching upon ATP binding; sequences stand for … in TCGTCGGCAGCGTCAGATGTGTATAAGAGACAGTTTTTTTTTTTTTTTTTTTTTTTTT…TC. The conditions noted are these: aptamer strand: ATP DNA aptamer (quencher-CACCTGGGGGAGTATTGCGGAGGAAGG + anchor), 100 nM annealed; ATP concentration: 500 uM; one replicate. Summed up: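 After annealing to 100 nM quencher-labelled ATP aptamer, Cy3-labelled switching-strand clusters on a modified Illumina MiSeq flow-cell were imaged in selection buffer. A second image followed after 15 min with 500 uM ATP at 22 °C, and five such buffer/ATP cycles were done, each separated by NaOH stripping and re-annealing. The fluorescence ratio, averaged per switch-domain sequence, is summed target-cycle over summed buffer-cycle Cy3 intensity per cluster, with clusters outside 100-1000 RFU excluded.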
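Note: ATP exposure 15 min at 22 °C before imaging.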

As to ATAAGAGAGC, the switch fluorescence ratio turned out to be 1.07.

As to ATTATCCACT, the switch fluorescence ratio turned out to be 0.971.

As for ATTTGAGTG, the switch fluorescence ratio was 1.02.

With ATATCGAAAG, the switch fluorescence ratio amounted to 0.99.

With TGCGTTGGAA, the switch fluorescence ratio was found to be 0.998.

On to TAACTACACG, for which the switch fluorescence ratio stood at 1.29.

Take CTTGTAGCTG: the switch fluorescence ratio came out at 0.975.

In the case of TCAAGTTTCA, the switch fluorescence ratio was 0.981.

Consider GGGATATCTA, for which the switch fluorescence ratio came out at 1.02.

As to ACATTGGAAA, the switch fluorescence ratio stood at 0.995.

Regarding TTCGGGGTG, the switch fluorescence ratio was found to be 0.963.

For CGTCATTTCC, the switch fluorescence ratio turned out to be 1.12.

ACGGTGCGCG: the switch fluorescence ratio amounted to 1.01.

As for AGCCACGCTT, the switch fluorescence ratio amounted to 0.962.

Turning to GTCGACCGCG, the switch fluorescence ratio came out at 0.972.

For the sequence TGGAGTAGGC, the switch fluorescence ratio worked out at 0.752.

With CTATTCAATG, the switch fluorescence ratio was 1.04.

In the case of AACGTGGAAC, the switch fluorescence ratio was 1.04.

Regarding CGAGTGTGCA, the switch fluorescence ratio was 1.02.

TCACAGAACA: the switch fluorescence ratio was determined as 1.05.

For the sequence GGGGCTGTT, the switch fluorescence ratio worked out at 1.06.

On to TGAAGGCCGA, for which the switch fluorescence ratio is 1.02.

With CGTGTCGGGT, the switch fluorescence ratio worked out at 1.02.

For the sequence CATGCCGCCT, the switch fluorescence ratio was 0.989.

Regarding GCAATATCAA, the switch fluorescence ratio worked out at 1.25.

Turning to CTCAACGAGT, the switch fluorescence ratio was 0.985.

For the sequence AATGCGTAAT, the switch fluorescence ratio worked out at 1.12.

As for TAACCCCATT, the switch fluorescence ratio came to 1.02.

Consider TGGGAGTTCG, for which the switch fluorescence ratio is 1.04.

As to CTGTGACATT, the switch fluorescence ratio turned out to be 1.05.

As for TATAGGGA, the switch fluorescence ratio was 0.986.

For the sequence CGCCCTGCCT, the switch fluorescence ratio was 0.979.

As for CGCGGTACT, the switch fluorescence ratio is 3.39.

Consider GGTGTGTTAC, for which the switch fluorescence ratio is 0.96.

As for TAAGTTATCC, the switch fluorescence ratio was determined as 1.03.

On to CCTGGTTGAG, for which the switch fluorescence ratio is 0.951.

For GGGGCGGTAA, the switch fluorescence ratio came out at 1.04.

AGGAGTAGAT: the switch fluorescence ratio came to 0.998.

On to TTTTTTCGC, for which the switch fluorescence ratio was determined as 1.03.

As for GTTTAACGAA, the switch fluorescence ratio came out at 0.974.

In the case of TGAACCGAAC, the switch fluorescence ratio came out at 2.47.

As to TCACGAGCTC, the switch fluorescence ratio is 1.02.

On to CGGACGAAGC, for which the switch fluorescence ratio was determined as 1.12.

Regarding GTACGAGAAT, the switch fluorescence ratio is 1.01.

With CTATTTTTGG, the switch fluorescence ratio turned out to be 1.09.

With GCGTCGACGT, the switch fluorescence ratio was 1.03.

Turning to CGCAAACCAA, the switch fluorescence ratio was found to be 1.29.

For GCTGTGGCGG, the switch fluorescence ratio worked out at 0.977.

In the case of TGCGATAAAC, the switch fluorescence ratio is 1.17.

Turning to TCGCACACGA, the switch fluorescence ratio is 1.7.

Regarding CACGTGTGGG, the switch fluorescence ratio is 0.997.

For ACCGCGCGAG, the switch fluorescence ratio is 0.977.

As to CTGTACGTCG, the switch fluorescence ratio was found to be 0.983.

With GTTTGTCACT, the switch fluorescence ratio is 1.01.

As for TCATCGCGGA, the switch fluorescence ratio is 1.1.

Turning to CGGAGGTGAG, the switch fluorescence ratio was found to be 1.03.

Take TATACTTGAG: the switch fluorescence ratio came to 0.968.

Take GGTGAAGGCC: the switch fluorescence ratio amounted to 1.03.

Turning to GCAGCACTGT, the switch fluorescence ratio came to 1.09.

As for TTGGACACTC, the switch fluorescence ratio worked out at 1.01.

With CGATGTAATG, the switch fluorescence ratio worked out at 1.04.

Turning to TGTGCAGGGG, the switch fluorescence ratio turned out to be 1.03.

As to TGAAGTGGG, the switch fluorescence ratio came out at 0.974.

For the sequence ACTGCCGTGG, the switch fluorescence ratio came out at 1.02.

GCTTAAACCA: the switch fluorescence ratio was determined as 1.03.

With AATGCATCTT, the switch fluorescence ratio is 1.01.

On to ATAACGAGTA, for which the switch fluorescence ratio was determined as 0.99.
